Consider 1 molecule from the supplement of paper PMC8728848.

What all share (assay): glycan array binding signal (z-score within array); higher = stronger binding
What all share (conditions): glycan notation: IUPAC condensed, linker removed

The target in test [1] is GlcA3S(b1-3)Gal(b1-4)GlcNAc(b1-3)Gal(b1-4)Glc. In short, it runs like this: (§1)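 The Consortium for Functional Glycomics database supplied 3228 glycan arrays, of which those lacking an available protein sequence were dropped. The binding signal, a within-array Z-score, was averaged across arrays of the same protein sequence and across linkers. Negative scores can be read as non-binding.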

Test [2] addresses GlcNAc(a1-3)Gal(b1-4)GlcNAc. In short, it runs like this:
as §1

For test [3], the target named is GlcNAc(a1-4)Gal(b1-3)GlcNAc. A digest of the protocol:
as §1

Test [4] concerns the target GlcNAc(a1-4)Gal(b1-4)GalNAc. In short, it runs like this:
as §1

In test [5] the target is GlcNAc(a1-4)Gal(b1-4)GlcNAc. A digest of the protocol: as §1
Test [6] deals with GlcNAc(a1-4)Gal(b1-4)GlcNAc(b1-3)Gal(b1-4)Glc. A digest of the protocol:
as §1

The target of test [7] is GlcNAc(a1-4)Gal(b1-4)GlcNAc(b1-3)Gal(b1-4)GlcNAc. In short, it runs like this: as §1
The target of test [8] is GlcNAc(a1-4)Gal(b1-4)GlcNAc(b1-3)Gal(b1-4)GlcNAc(b1-3)Gal(b1-4)GlcNAc. A digest of the protocol: as §1
The target of test [9] is GlcNAc(a1-4)Gal(b1-4)GlcNAc(b1-3)Gal(b1-4)[Fuc(a1-3)]GlcNAc(b1-3)Gal(b1-4)[Fuc(a1-3)]GlcNAc. In short, it runs like this:
as §1

Test [10] deals with GlcNAc(a1-6)Gal(b1-4)GlcNAc. In short, it runs like this:
as §1

The target in test [11] is GlcNAc(b1-2)Gal(b1-3)GalNAc. A digest of the protocol: as §1
The target of test [12] is GlcNAc(b1-2)Man(a1-3)[GlcNAc(b1-2)Man(a1-6)]Man(b1-4)GlcNAc(b1-4)GlcNAc. In short, it runs like this:
as §1

Test [13] has as its target GlcNAc(b1-2)Man(a1-3)[GlcNAc(b1-2)Man(a1-6)]Man(b1-4)GlcNAc(b1-4)[Fuc(a1-6)]GlcNAc. In short, it runs like this:
as §1

Test [14] addresses GlcNAc(b1-2)Man(a1-3)[GlcNAc(b1-4)][GlcNAc(b1-2)Man(a1-6)]Man(b1-4)GlcNAc(b1-4)GlcNAc. In short, it runs like this: as §1
Test [15] deals with GlcNAc(b1-2)Man(a1-3)[GlcNAc(b1-4)][GlcNAc(b1-2)Man(a1-6)]Man(b1-4)GlcNAc(b1-4)[Fuc(a1-6)]GlcNAc. In short, it runs like this:
as §1

Test [16] addresses GlcNAc(b1-2)[GlcNAc(b1-4)]Man(a1-3)[GlcNAc(b1-2)Man(a1-6)]Man(b1-4)GlcNAc(b1-4)GlcNAc. A digest of the protocol:
as §1

Test [17] addresses GlcNAc(b1-2)[GlcNAc(b1-4)]Man(a1-3)[GlcNAc(b1-4)][GlcNAc(b1-2)Man(a1-6)]Man(b1-4)GlcNAc(b1-4)GlcNAc. In short, it runs like this:
as §1

The target of test [18] is GlcNAc(b1-2)[GlcNAc(b1-4)]Man(a1-3)[GlcNAc(b1-4)][GlcNAc(b1-2)[GlcNAc(b1-6)]Man(a1-6)]Man(b1-4)GlcNAc(b1-4)GlcNAc. A digest of the protocol: as §1
The target of test [19] is GlcNAc(b1-2)[GlcNAc(b1-4)]Man(a1-3)[GlcNAc(b1-4)][GlcNAc(b1-2)[GlcNAc(b1-6)]Man(a1-6)]Man(b1-4)GlcNAc(b1-4)[Fuc(a1-6)]GlcNAc. In short, it runs like this:
as §1

Test [20] addresses GlcNAc(b1-2)[GlcNAc(b1-6)]Man(a1-6)[GlcNAc(b1-2)Man(a1-3)]Man(b1-4)GlcNAc(b1-4)GlcNAc. In short, it runs like this: as §1
Test [21] deals with GlcNAc(b1-2)[GlcNAc(b1-6)]Man(a1-6)[GlcNAc(b1-2)Man(a1-3)]Man(b1-4)GlcNAc(b1-4)[Fuc(a1-6)]GlcNAc. A digest of the protocol: as §1
For test [22], the target named is GlcNAc(b1-2)[GlcNAc(b1-6)]Man(a1-6)[GlcNAc(b1-4)][GlcNAc(b1-2)Man(a1-3)]Man(b1-4)GlcNAc(b1-4)GlcNAc. A digest of the protocol: as §1

Some of the results follow.

B1: LCA (Lens culinaris), P02870 (protein)
chain: MASLQTQMISFYLIFLSILLTTIFFFKVNSTETTSFSITKFSPDQKNLIFQGDGYTTKGKLTLTKAVKSTVGRALYSTPIHIWDRDTGNVANFVTSFTFVIDAPSSYNVADEFTFFIAPVDTKPQTGGGYLGVFNSKEYDKTSQTVAVEFDTFYNAAWDPSNKERHIGIDVNSIKSVNTKSWNLQNGERANVVIAFNAATNVLTVTLTYPNSLEEENVTSYTLNEVVPLKDVVPEWVRIGFSATTGAEFAAHEVHSWSFHSELGGTSSSKQAADA
With B1, the “glycan array binding signal (z-score)” value was -0.228 in test [1]; -0.217 in test [2]; -0.248 in test [3]; -0.181 in test [4]; -0.226 in [5]; -0.135 in [6]. The “glycan array binding signal (z-score)” value is -0.237 in test [7]; -0.24 in test [8]; -0.191 in test [9]; -0.218 in test [10]; -0.161 in test [11]; 2.04 in [12]. Further, the “glycan array binding signal (z-score)” value in [13] was 5.54; in test [14], -0.039; in test [15] it was 0.424; in test [16], -0.169; in [17], -0.212; in test [18] it was -0.287. Also, the “glycan array binding signal (z-score)” value in [19] was -0.258; in [20] it was -0.183; in [21] it was 8.45; in [22], -0.173.
